# From PubChem BioAssay AID1461 (National Center for Advancing Translational Sciences (NCATS), 2008)
# The whole screen tested about 220,000 compounds, of which about 2,300 (1%) were called active. This list was built around the results that the source calls inconclusive (neither active nor inactive); the mix of calls is not that of the screen. Calls follow the shape of the dose curve; as a rule, active = well fitted inhibition curve with a large enough effect; inconclusive = small, poorly fitted or top-dose-only effect, or effect the other way; inactive = no such curve, though single readings can be large or run the other way. No potency is given beside an inconclusive call; the fits are too rough.
# Molecular target: Neuropeptide S receptor (Homo sapiens) (UniProt Q6W5P4)
# Assay: qHTS Assay for Antagonists of the Neuropeptide S Receptor: cAMP Signal Transduction; also: nearly all actives have a fitted effect of over 50% in size
# Conditions: CHO-NPSR cells, cAMP TR-FRET, antagonist mode; activity change, negative = inhibition: at 38.3 µM (top of the series) unless noted
# % is scaled to controls: 0 for no effect and ±100 for the full control effect; potency is read from the fitted curve at half-maximal effect; tags tell the direction and shape of the fitted curve.
# Chain of UniProt Q6W5P4 (Q6W5P4 whole entry, looked up): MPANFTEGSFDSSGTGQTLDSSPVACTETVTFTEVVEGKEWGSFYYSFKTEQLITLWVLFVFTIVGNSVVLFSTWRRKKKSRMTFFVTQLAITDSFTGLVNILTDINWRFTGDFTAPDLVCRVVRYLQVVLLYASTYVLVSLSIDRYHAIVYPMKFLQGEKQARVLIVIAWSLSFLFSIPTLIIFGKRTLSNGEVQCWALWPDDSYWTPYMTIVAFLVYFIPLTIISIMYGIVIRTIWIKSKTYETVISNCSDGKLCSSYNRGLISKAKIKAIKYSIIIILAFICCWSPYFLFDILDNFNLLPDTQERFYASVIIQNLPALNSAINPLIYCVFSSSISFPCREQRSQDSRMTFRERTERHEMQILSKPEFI
Structure (SMILES),"activity change, negative = inhibition",Potency
CCc1ccc2c(CN3CCN(S(=O)(=O)c4cccs4)CC3)cc(=O)oc2c1,inactive: -7.39%,
CCC(=O)Nc1ccc(NC(=O)c2cccc(OC)c2)nc1,inactive: -5.44% [at 46.1 µM],
Cc1occc1C(=O)Nc1cccc(C(=O)NCc2ccccc2)c1,inactive: -12.8% [at 46.1 µM],
COc1ccc(NC(=O)OCCn2c([N+](=O)[O-])cnc2C)cc1,inactive: 12.4%,
COc1ccc(C2C3=C(CC(C)(C)CC3=O)Nc3n[nH]c(C)c32)cc1 (stereo not given),,"inconclusive [inhibitor, partial curve, poor fit]"
CNC(=O)c1nnsc1S(=O)(=O)c1ccc(Cl)cc1,,"inconclusive [inhibitor, single point]"
CN(C)S(=O)(=O)c1cccc(NC(=O)c2cc3ccccc3o2)c1,inactive: -15.8% [at 46.1 µM],
COC(=O)c1cc(C)sc1NC(=O)C1CC=CCC1C(=O)O (stereo not given),,"inconclusive [activator, single point]"
CC(=O)N(Cc1ccc(F)cc1)C1=C(NCCc2ccccc2)C(=O)c2ccccc2C1=O,,"inconclusive [inhibitor, single point]"
COC(=O)c1ccccc1NC(=O)c1cnc2sccn2c1=O,,"inconclusive [inhibitor, single point]"
O=C1OCCC1Sc1nnc(-c2ccco2)o1 (stereo not given),inactive: 5.9% [at 46.1 µM],
Cc1ccccc1NC(=O)Nc1ccc(C(F)(F)F)cc1,inactive: -2.26%,
Cc1ccc(Cn2ccc(NC(=O)c3cc(-c4cccc(Cl)c4)on3)n2)cc1,,"inconclusive [inhibitor, partial curve]"
O=C(COc1ccccc1)NC(=S)Nc1cccc(NC(=O)c2ccccc2Cl)c1,,"inconclusive [inhibitor, partial curve]"
C#CC(=O)N(c1ccc(OC)c(OC)c1)C(C(=O)NC1CCCC1)c1cccs1 (stereo not given),,active: 12.6 µM
CCOC(=O)C1(C)/C(=N/Nc2ccccc2Cl)C(=O)C(=O)N1c1ccccc1 (stereo not given),inactive: -7.46% [at 46.1 µM],
Cc1cccc(NC(=O)CCCCCN2C(=O)c3ccccc3C2=O)n1,inactive: 12.2% [at 46.1 µM],
Cn1nc(C(F)(F)F)c(C(=O)Nc2ccc(F)cc2F)c1Sc1ccc(Cl)cc1,,"inconclusive [inhibitor, single point]"
CC1(C)CC(C(CCN(Cc2ccccc2)C(=O)c2ccco2)c2ccc(F)cc2)CCO1 (stereo not given),,"inconclusive [inhibitor, single point]"
CCN(CC)c1ccc2cc(NC(=O)CCC(=O)O)c(=O)oc2c1,,"inconclusive [inhibitor, single point]"
Nc1c(C(=O)N2CCCC2)sc2nc3c(cc12)CCCCCC3,inactive: -32.5%,
COc1cc(S(=O)(=O)NCC2CCCO2)ccc1Br (stereo not given),inactive: 2.86% [at 46.1 µM],
CCOc1cc(S(=O)(=O)N2CCC(c3nc4ccccc4s3)CC2)c(OCC)cc1S(=O)(=O)N1CCCCC1,inactive: 0.317% [at 46.1 µM],
CCOC(=O)C1=C(C)NC(C)=C(C(=O)OCC)C1c1cc2ccc(C)cc2[nH]c1=O,inactive: -6.3% [at 46.1 µM],
CCOc1ccc(C2NC(=O)C(C#N)=C(S)N2c2ccc(OC)cc2)cc1OC (stereo not given),,"inconclusive [inhibitor, single point]"

Structure (SMILES),"activity change, negative = inhibition",Potency
COc1ccc(Cc2nnc(SCC(=O)N3CCCC(C)C3)o2)cc1 (stereo not given),inactive: -6.7%,
CCSc1nc2c(c(=O)[nH]1)C(c1ccncc1)C(C(=O)OC)=C(C)N2 (stereo not given),inactive: -2.75% [at 46.1 µM],
CC(C)NCCCCOc1ccc(Br)cc1Cl,,"inconclusive [activator, single point]"
O=C(N(Cc1ccccc1)c1ccccn1)C12CC3CC(CC(C3)C1)C2,,"inconclusive [inhibitor, single point]"
COC(=O)CCCC1=CC2=C(c3ccccc3)C(=O)C(C)(OC(=O)C3CCCC3)C(=O)C2=CN1CCCCO (stereo not given),inactive: 17%,
Cc1csc(Nc2ccc(Cl)cc2)[n+]1-c1ccc(Cl)cc1,,active: 10 µM
O=C(Nc1cccc(F)c1)N(Cc1ccc(Cl)cc1)CC(O)C(F)(F)F (stereo not given),,"inconclusive [inhibitor, single point]"
CN1C(=CC=C2C=C(I)C(=O)C(I)=C2)C(C)(C)c2ccccc21,,"inconclusive [activator, partial curve]"
COc1ccc(N2CCN(c3ncnc4c3[nH]c3ccccc34)CC2)cc1,,"inconclusive [inhibitor, single point]"
Nc1ccc2oc(-c3cccc4ccccc34)nc2c1,inactive: -4.94% [at 46.1 µM],
O=C(Nc1ccc(C(F)(F)F)cc1)C1(c2ccccc2)CC1,inactive: 17.2%,
COc1cc(OC)cc(-n2nnnc2SCC(=O)N2CCCc3ccccc32)c1,inactive: -21.5% [at 46.1 µM],
C=CCn1c(SCn2nnc3ccccc3c2=O)nnc1-c1ccc(Cl)cc1,,"inconclusive [inhibitor, partial curve]"
CC(NC(=O)C12CC3CC(CC(C3)C1)C2)c1ccc2c(c1)OCCO2 (stereo not given),inactive: -10.6% [at 46.1 µM],
Cc1cccc(NC(=O)c2sc(Cl)nc2-c2ccccc2)c1,,"inconclusive [inhibitor, single point]"
Cc1ccc(NC(=O)O/N=C2\CCCCC2c2ccc([N+](=O)[O-])cc2[N+](=O)[O-])cc1 (stereo not given),,"inconclusive [inhibitor, single point]"
Cc1ccc(C2C(=O)N(C3CCC(C)CC3)CC(=O)N2C2CCCC2)cc1 (stereo not given),,"inconclusive [inhibitor, single point]"
CN1/C(=C\C(=O)Nc2cccc(Cl)c2)C(C)(C)c2ccccc21,inactive: -18.7%,
O=S(=O)(NCc1ccco1)c1cnc(Cl)c(Cl)c1,inactive: 25.6% [at 7.67 µM],
Cc1cc(C)n(-c2nc(C)nc(N)n2)n1,inactive: -1.92% [at 46.1 µM],
C=CCOC(=O)c1[nH]c2c(c1C)C(=O)CC(c1ccco1)C2 (stereo not given),,"inconclusive [activator, partial curve]"
CCNc1ccc(Br)cc(C(=O)/C=C/c2ccc(Cl)cc2)c1=O,inactive: -52%,
CCCn1c(CN2CCN(C)CC2)nc2ccccc21,inactive: -11.9% [at 46.1 µM],
O=C(CSc1nc(C2CC2)nc2ccccc12)N1c2ccccc2Sc2ccccc21,,"inconclusive [inhibitor, single point]"
CC(=O)c1cccc(NC(=O)CCNS(=O)(=O)c2cccc3nonc23)c1,inactive: 2.09%,

Structure (SMILES),"activity change, negative = inhibition",Potency
Cc1cccc(CS(=O)(=O)c2nnc([C@H](Cc3ccccc3)NC(=O)OC(C)(C)C)o2)c1,,"inconclusive [inhibitor, single point]"
CCOC(=O)c1c(NC(=O)CSc2nnc(-c3ccccc3)n2CC)sc(C(C)=O)c1C,,"inconclusive [inhibitor, full curve]"
O=C(c1cccs1)N1CCC(c2nc3ccccc3s2)CC1,,"inconclusive [inhibitor, single point]"
Cc1nn(C(C)(C)C)c(OC(=O)c2ccc3c(c2)OCO3)c1S(=O)(=O)c1ccccc1,,"inconclusive [inhibitor, partial curve]"
CCOc1ccc(OCC)c(NC(=O)CN2CCN(c3cc(C)ccc3C)CC2)c1,,"inconclusive [inhibitor, single point]"
COc1cc(/C=C/C(=O)CC(=O)/C=C/c2ccc(O)c(OC)c2)ccc1O,,"inconclusive [inhibitor, full curve, poor fit]"
O=C(Nc1ccc2c(c1)OCCO2)c1cccc(S(=O)(=O)N2CCOCC2)c1,inactive: -5.72% [at 46.1 µM],
CCOC(=O)c1c(-c2cccc([N+](=O)[O-])c2)csc1NC(=O)C1CCCCC1,,active: 10 µM
O=C1C(SCCO)=C(SCCO)C(=O)c2ccccc21,,active: 12.6 µM
CC(=O)Nc1nc2c(c3c1c(=O)oc1ccccc13)CC(C)CC2 (stereo not given),,"inconclusive [inhibitor, single point]"
O=C(O)c1nc(N2CCOCC2)nc(N2CCOCC2)n1,inactive: 6.18% [at 46.1 µM],
O=C1CC(C(=O)Nc2ccc(Br)cc2)S/C(=N\N=C\c2ccco2)N1 (stereo not given),,"inconclusive [inhibitor, single point]"
COC(=O)c1cn(C)c2ccc(S(=O)(=O)N3CCCC3)cc2c1=O,inactive: -6.9% [at 46.1 µM],
N#C/C(=C\c1cccnc1)c1nc2ccccc2[nH]1,,"inconclusive [activator, partial curve]"
Nc1ccc2c3c(cccc13)C(=O)NC2=O,,"inconclusive [inhibitor, partial curve]"
C=CCC1(C#N)C(SC)=NC2=C(C(=O)CC(C)(C)C2)C1c1ccc(Br)cc1 (stereo not given),,"inconclusive [inhibitor, single point]"
O=C(Nc1ccc(N2CCN(C(=O)c3ccccc3)CC2)c(Cl)c1)c1ccc(Br)o1,,"inconclusive [inhibitor, single point]"
CC1=C(C(=O)OCC(Br)(Br)Br)C(c2ccc(Br)cc2)NC(=O)N1CCCC(=O)O (stereo not given),,"inconclusive [inhibitor, single point]"
Cc1ccc(SCCC(=O)OCn2nnc3ccccc3c2=O)cc1,inactive: 1.57%,
COC(=O)c1c(CSc2ccc(C)c(C)c2)noc1C(=O)NCc1ccc(OC)cc1,,"inconclusive [inhibitor, single point]"
COc1ccccc1N1CC(C(=O)OCC(=O)c2ccc(F)cc2)CC1=O (stereo not given),inactive: 16.3% [at 46.1 µM],
CCn1c(=O)c([N+](=O)[O-])c(NCC(O)c2ccccc2)c2ccccc21 (stereo not given),inactive: 1.54%,
COc1ccc(CNC(=O)C(c2cccs2)N(C(=O)c2csnn2)C2CC2)cc1 (stereo not given),inactive: -9.16% [at 46.1 µM],
Nc1nc(Cl)nc2c1ncn2[C@@H]1O[C@H](COP(=O)(O)OP(=O)(O)OP(=O)(O)O)[C@H](O)[C@H]1O,,"inconclusive [activator, partial curve, poor fit]"
O=C(NCCCNc1ccc(C(F)(F)F)cc1[N+](=O)[O-])c1ccc(Cl)cc1,inactive: -24.2% [at 46.1 µM],
